Laboratory results published in the supplement of paper PMC12217912.
The list shows a part of the results. The full chains were built here from the parent and the listed change. Values near 0.05 are background.

B1: TEV protease; numbered along this chain (parent)
chain: MGESLFKGPRDYNPISSSICHLTNESDGHTTSLYGIGFGPFIITNKHLFRRNNGTLVVQSLHGVFKVKDTTTLQQHLVDGRDMIIIRMPKDFPPFPQKLKFREPQREERICLVTTNFQTKSMSSMVSDTSCTFPSGDGIFWKHWIQTKDGQCGSPLVSTRDGFIVGIHSASNFTNTNNYFTSVPKNFMELLTNQEAQQWVSGWRLNADSVLWGGHKVFMVKPEEPFQPVKEATQL

Variants of: B1
Experiment: raw area under fraction-flipped curve 0-4 h after induction (AUC4h, not background-subtracted), DNA-recorder readout of cleavage of the substrate (dimensionless); higher = more cleavage of the substrate by the protease variant
Details: temperature: 34 °C; time window: 0-4 h after rhamnose induction
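Also: Bxb1 expression induced with 0.2% (w/v) L-rhamnose at OD600 near 0.5, cultures sampled hourly, flipped fraction per protease–substrate barcode pair counted by paired-end Illumina sequencing.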

Variant	area with substrate ENLYFQH	area with substrate ENLYFQI	area with substrate ENLYFQN	area with substrate ENLYFQP	area with substrate ENLYFQQ	area with substrate ENLYFQR	area with substrate ENLYFQS	area with substrate ENLYFQT	area with substrate ENLYFQV	area with substrate ENLYFQW
G166W	0.0526	0.0531	0.0592	0.047	0.0491	0.0544	0.0501	0.0665	0.0467	0.0399
L205H	0.0588				0.0481		0.0753	0.0564		0.0581
I145V	0.0752	0.0681					0.122	0.0825	0.0451	0.0849
T181F	0.0569	0.0601	0.0595	0.0494	0.0589	0.0528	0.0607			0.0642
V57N				0.0505	0.0903	0.0714	0.101	0.0728	0.0626	
K90G						0.0595	0.0989			0.0713
T129L	0.0852	0.0533	0.0768			0.0711	0.0964	0.0585	0.0614	
V183D	0.0481	0.046	0.0445	0.0673	0.0429		0.0494	0.0543	0.0255	
F140W		0.0367					0.0974			0.0667
W199P	0.0736	0.0684			0.0721	0.0691	0.069	0.0687		0.0574
D79T			0.0731	0.0506			0.0915			0.0588
Q227W		0.0592	0.0807		0.069	0.0548	0.0991	0.0651		0.0532
H62I		0.0604	0.0883			0.075	0.0977	0.0608		
R160W	0.105				0.0652	0.0643	0.102	0.0842		0.106
Q97H		0.0664		0.0468		0.0627	0.0965	0.0697	0.0652	0.0629

Same assay, conditions: temperature: 34 °C; time window: 0-4 h after rhamnose induction

Variant	area with substrate ENLYFQY	area with substrate ENLYFQF	area with substrate ENLYFQG	area with substrate ENLYFQL	area with substrate ENLYFQM	area with substrate ENLYFQK	area with substrate ENLYFQE	area with substrate ENLYFQD
G166W	0.0716							
L205H		0.0749	0.0778					
I145V	0.0844			0.0822	0.0999			
T181F	0.0558	0.0595		0.0637	0.0601	0.0512		
V57N				0.0495	0.115	0.0445		
K90G	0.0667							
T129L	0.0549			0.0653	0.0709	0.0604		
V183D				0.0373	0.0462		0.0522	
F140W	0.0581	0.0598				0.0642		
W199P			0.0546	0.064	0.0525	0.0691		
D79T			0.125	0.0512	0.0719			
Q227W					0.0971	0.0444		0.0674
H62I	0.0945						0.0681	
R160W					0.0773	0.0863		
Q97H				0.0506		0.0847		
